# Reference: PubChem BioAssay AID1948 (National Center for Advancing Translational Sciences (NCATS), 2009)
# Among all 110,000 compounds or so, about 20 (0.02%) were called active. This list was built around the results that the source calls inconclusive (neither active nor inactive); the mix of calls is not that of the screen. The call rests on the fitted dose curve; in most records, active means well fitted activation curve with a large enough effect; inconclusive means small, poorly fitted or top-dose-only effect; inactive means no such curve, though single readings can be large or run the other way. Potencies of inconclusive entries are left out as doubtful fits.
# Assay: qHTS Assay for Compounds that Induce Erasure of Genomic Imprints;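 on activity change, positive = activation: 0% = negative control wells on the plate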
# Details: mouse ES Peg3-LacZ reporter, beta-gal luminescence, 40 h; activity change, positive = activation: at 10.9 µM (top of the series) unless noted
# Method in brief: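 Gelatin-coated wells received 300 freshly trypsinized female ES cells with a Peg3LacZ-Neo reporter on the maternal allele, then incubated 40 hours at 37C. BetaGlo was added for 5 minutes at room temperature before a single luminescence read.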
# Potency means the concentration at half of the fitted maximal effect; tags describe the fitted curve by direction and shape.
Compound,Potency,"activity change, positive = activation"
Cc1ccc2nc(CSc3nnc(Cc4cccs4)n3C3CCCCC3)cc(=O)n2c1,"inconclusive [activator, single point]",
C#CCCCCCCCCCCCc1ccco1,"inconclusive [activator, single point]",
CCOC(=O)c1cccc(NC(=O)CN2C(=O)CC(C)(C)Sc3ccccc32)c1,,inactive: -12.7%
Cc1ccc(Nc2c(-c3ccc(N4CCOCC4)cc3)nc3ncccn23)cc1,,inconclusive: 30.1% [activator]
Cc1cc(NCCCN)nc(-c2ccccc2O)n1,"inconclusive [activator, single point]",
Cc1ccc2[nH]cc(C(c3ccccc3)c3cccs3)c2c1 (stereo unspecified),,inactive: 10.5%
COc1cc(OC)c(NC(=O)c2ccc3nc(C(C)C)oc3c2)cc1Cl,,inconclusive: 33.2% [activator]
CCc1cc2c(cc3c(=O)n(CCCC(=O)NCc4ccccc4Cl)nc(CC)n32)s1,,inactive: -1.75%
CS(=O)(=O)c1ccc(Cn2c3c(c4cc(F)cc(F)c42)CCC[C@H]3CC(=O)O)cc1,"inconclusive [activator, single point]",
CN(C)c1ncnc2ccc(-c3ccccc3C#N)cc12,"inconclusive [activator, single point]",
Cn1c(SCCOc2ccccc2Cl)nnc1-c1ccncc1,"inconclusive [activator, partial curve, poor fit]",
COc1ccccc1N1CCN(C(=O)C2CCN(S(=O)(=O)c3cccc4nonc34)CC2)CC1,,inconclusive: 34.5% [activator]
CC(=O)N1CCc2c(sc3c2c(=O)n(-c2ccccc2Cl)c(=O)n3C)C1,,inconclusive: 99.8% [activator]
CCc1nc(NCc2ccco2)c2oc3ccccc3c2n1,,inactive: -26.8% [at 60.7 µM]
CCc1ccc(CNC(=O)CN2C(=O)C3CCCCN3c3ccc(C(=O)N4CCCC4)cc32)cc1 (stereo unspecified),,inactive: -5.74%
COc1cccc(NC(=O)C(C)n2c(=O)cc(C(F)(F)F)c3c(C)nn(C)c32)c1 (stereo unspecified),,inactive: 9.15%
COc1cc2nc(NCCc3cccc(C)c3)n3nc(-c4ccccc4)nc3c2cc1OC,,inconclusive: 41.6% [activator]
CC(C)=CCC/C(C)=C/CC/C(C)=C/CC/C(C)=C/CC/C(C)=C/CC/C(C)=C/CC/C(C)=C/CC/C(C)=C/CC/C(C)=C/CO,"inconclusive [activator, single point]",
CCOC(=O)c1ccccc1NC(=O)CSc1ccc(-c2sc(C)nc2C)nn1,,inconclusive: 130% [activator]
COc1cccc(N2CC(NC(=O)/C=C\c3ccccc3)CC2=O)c1 (stereo unspecified),,inconclusive: 45% [activator]
Cc1cccc(-n2ncc3c(NCCOCCO)ncnc32)c1,,inactive: -20.2%
CC(C)CC(=O)NC1CC(=O)N(c2ccc3c(c2)OCCO3)C1 (stereo unspecified),,inconclusive: 31.3% [activator]
CCOc1ccc(NC(=O)NC2CCOC(C)(C)C2)cc1 (stereo unspecified),"inconclusive [activator, single point]",
O=C(CCN1C(=O)COc2ccccc21)NCc1ccco1,,inactive: 4.11% [at 60.7 µM]

Compound,Potency,"activity change, positive = activation"
C/C(O)=C(/C#N)c1nc2ccccc2[nH]1,"inconclusive [activator, single point]",
Cc1nc2cnc(N3CCN(C)CC3)nc2n(CCc2ccccc2)c1=O,"inconclusive [activator, partial curve]",
O=C(Nc1nccs1)C1CCN(S(=O)(=O)c2cnc[nH]2)CC1,"inconclusive [activator, single point]",
Cc1cccc(NC(=O)CCCn2nc(C)c3c(C)n(-c4ccccc4)nc3c2=O)c1C,,inconclusive: 36.9% [activator]
CC(C)CCNc1nc2c(-c3ccccc3)nnn2c2ccccc12,,inactive: -10.9%
COc1cccc(NC(=O)c2oc3ccccc3c2NC(=O)c2ccccc2C)c1,,inconclusive: 63.4% [activator]
COc1ccc(S(=O)(=O)Nc2cccc(-c3ccc(N4CCCCCC4)nn3)c2)cc1OC,,inconclusive: 92.5% [activator]
CN(C)c1ncc2nc(-c3cccs3)c(=O)n(C[C@H]3CCCO3)c2n1,,inactive: -2.71% [at 60.7 µM]
COc1cccc(-c2cncnc2Nc2ccccc2)c1,"inconclusive [activator, full curve]",
O=C(Cn1cnc2c(nnn2Cc2ccccc2F)c1=O)NCC1CCCO1 (stereo unspecified),"inconclusive [activator, single point]",
Cc1cccc(C(c2sc3nc(-c4ccco4)nn3c2O)N2CCOCC2)c1 (stereo unspecified),,inconclusive: 33.4% [activator]
Oc1c(C(c2ccco2)N2CCC3(CC2)OCCO3)sc2ncnn12 (stereo unspecified),"inconclusive [activator, single point]",
S=c1oc(-c2ccncc2)nn1CCc1ccncc1,"inconclusive [activator, single point]",
O=C(CSc1nc(-c2ccccc2)cs1)NCc1ccco1,"inconclusive [activator, single point]",
COCCn1c(=O)c(-c2cccs2)nc2cnc(N3CCOCC3)nc21,"inconclusive [activator, partial curve]",
Cc1ccc(NC(=O)Cn2cc3c(n2)CCCC3)cc1Cl,,inactive: -7.88%
COc1ccccc1CCn1c(=O)c(-c2cn(C)c3ccccc23)nc2cncnc21,"inconclusive [activator, single point]",
Cc1nn(S(=O)(=O)c2ccc(F)cc2)c(C)c1S(=O)(=O)N1CCCCCC1,,inactive: -7.91%
COc1cccc2oc(-c3ccccc3)cc(=O)c12,,inactive: -93.3% [at 60.7 µM]
COc1ccc(CCC(=O)NCc2nc3cccnc3n2Cc2ccc(OC)cc2)cc1,,inconclusive: 42.4% [activator]
COc1ccccc1CNc1nc(-c2ccc3c(c2)OCO3)nc2ccccc12,"inconclusive [activator, single point]",
Cc1ccc(C)c(CN2C(=O)c3ccccc3S(=O)c3ccc(C(=O)NCc4ccco4)cc32)c1 (stereo unspecified),,inconclusive: 30.1% [activator]
CS(=O)(=O)Nc1cccc(-c2cncnc2Nc2ccccc2)c1,"inconclusive [activator, single point]",
CC1Cc2ccccc2N1C(=O)c1ccnc(C(C)(C)C)c1 (stereo unspecified),"inconclusive [activator, single point]",

Compound,Potency,"activity change, positive = activation"
CCCN(CCC)C(=O)Cn1c(=O)n(-c2ccc(CC)cc2)c(=O)c2c3c(sc21)CCC3,,inactive: 5.38%
O=C(NCCc1cccc(F)c1)[C@@H]1CSC2c3ccccc3C(=O)N21 (stereo partly specified),"inconclusive [activator, single point]",
COCCn1c(C(=O)N2CCCC2)cc2c1C[C@H]1CN(C(=O)c3ccccc3)[C@@](Cc3ccc(F)cc3)(C(=O)OC)[C@@H]21,,inactive: -9.53% [at 60.7 µM]
N#Cc1cccc(-c2cc(-n3ccnc3)ncn2)c1,"inconclusive [activator, full curve, poor fit]",
O=c1c2ccccc2n2nnnc2n1-c1ccccc1,"inconclusive [activator, single point]",
CCCCc1c(C)nn(-c2nnc3c4ccccc4n(CC)c3n2)c1C,,inactive: -21.6% [at 60.7 µM]
COc1ccccc1NC(=O)c1sc2ncn(Cc3ccccc3Cl)c(=O)c2c1C,,inconclusive: 40.4% [activator]
CN(C(=O)c1cccc(N2C(=O)C3CC=CCC3C2=O)c1)C1CCCCC1 (stereo unspecified),"inconclusive [activator, single point]",
COc1cccc(C2/C(=C(/O)c3ccncc3)C(=O)C(=O)N2CCCN(C)C)c1 (stereo unspecified),"inconclusive [activator, single point]",
Cc1cccc(NC(=O)CSc2nc(=O)n(Cc3ccccn3)c3c2CCC3)c1C,,inconclusive: 31.3% [activator]
CCCn1c(=O)[nH]c(=O)c2[nH]cnc21,"inconclusive [activator, single point]",
COc1ccc(CCN2C(=O)N(c3ccccc3)C(=O)C2CC(=O)Nc2ccccc2)cc1 (stereo unspecified),,inconclusive: 45.6% [activator]
COc1ccc(/C=C/C(=O)c2ccc(O)cc2O)cc1,"inconclusive [activator, full curve, poor fit]",
O=C(c1ccccc1)c1ccc2nc(Nc3cc(Cl)ccc3O)c3nncn3c2c1,,inconclusive: 40.2% [activator]
Cn1c(=O)[nH]c2ncn(C)c2c1=O,"inconclusive [activator, single point]",
O=C(NCC(c1ccccc1)c1ccccc1)c1nn(-c2ccccc2Cl)nc1CO,,inconclusive: 34.3% [activator]
COc1ccc2[nH]cc(CCNc3ncnc4ccc(-c5ccccc5CN(C)C)cc34)c2c1,"inconclusive [activator, single point]",
CN(C)c1ccc(-c2cncnc2Nc2ccc(F)cc2)cc1,"inconclusive [activator, single point]",
COc1ccccc1CN1COc2ccc3c(C)cc(=O)oc3c2C1,,inconclusive: 54.7% [activator]
Cc1ccc(CNC(=O)Cn2c(=O)ccc3cc(S(=O)(=O)N4CCC(C)CC4)ccc32)cc1,,inconclusive: 82.8% [activator]
CC(=O)c1cccc(NS(=O)(=O)c2cc(-c3onc(C)c3C)ccc2C)c1,,inconclusive: 38.2% [activator]
CN1CCc2c(sc(NC(=O)CSc3ccc(F)cc3)c2-c2nc3ccccc3s2)C1,,inconclusive: 68% [activator]
CCOC(=O)c1ccc(NC(=O)CSc2cn(CC(=O)N3CCCC3)c3ccccc23)cc1,,inactive: -17.2%
